Laboratory results reported in patent US20230346952A1, “CANNABINOID GLYCOSIDE PRODRUGS AND METHODS OF SYNTHESIS” (priority 2015, published 2023).

Columns and labels:
[1] = Rat plasma toxicokinetics post VB302 administration at 1,000 mg/kg; settings: post VB302 oral gavage 1,000 mg/kg, label = analyte in plasma; for AUC in plasma: 1, 2, 6, 24 hours
[2] = Rat plasma toxicokinetics post VB311 administration at 1,000 mg/kg; settings: for relative amount in plasma: label = analyte
[3] = Analysis of large intestine contents upon administration of CBD and CBD glycosides; type: in vivo, Swiss mice; settings: 2 hours
Description: In order to investigate the metabolism and decoupling of CBD-glycosides in the large intestine, an aqueous solution of a mixture of CBD-glycosides was administered to a mouse by oral gavage. As a control, a solution of CBD in cremophor, ethanol, and saline was administered to a second mouse. The animals were each sacrificed at 2 hours. Following termination and tissue harvest, the intestinal contents were then extracted and analyzed by C18 reverse phase HPLC. The mice employed in this example were eight week old male Swiss mice fasted for 12 hours prior to administration of the solutions.
The resulting extracts were analyzed by LCMS performed using a Shimadzu LC-MS 2010 EV. LC separation was carried out using a Silia Chrom XDB C18 5 um, 150A, 4.6×50 mm. The method was 12 min, 5 to 95 H2O:ACN gradient elution. Low resolution MS was performed in negative mode via electrospray ionization (ESI). Acetic acid and formic acid were used as sample additives during analysis, and the injection volume was 20 µl.

[4] = Antimicrobial activity observed in phytocannabinoid glycosylation reaction mixtures; settings: large-scale glycosylation reaction mixtures
[5] = test system: Lallzyme Beta™ (Lallemand); assay: In vitro digestion with Lallzyme Beta; settings: 5 mg/ml Lallzyme Beta, 20 mM citrate buffer pH 4.0, 44° C.; HPLC
[6] = Bioavailability assay: intestinal contents after oral gavage of VB110; type: in vivo, Swiss mice; settings: 120 mg/kg VB110 oral gavage, C18 HPLC
Description: In order to investigate the effectiveness of glycosylation to effect site-specific drug delivery, VB110 was administered to three mice by oral gavage and the animals sacrificed at 30, 60, and 90 minutes. Eight week old male Swiss mice were fasted for 12 hours prior to administration of 120 mg/kg VB110 in 10% Ethanol USP, 10% Propylene Glycol USP, 0.05% Sodium Deoxycholate USP, 79.95% Saline USP. Following termination and tissue harvest, the intestinal contents were then extracted and analyzed by C18 reverse phase HPLC. […] This decoupling of VB110 is consistent with the large intestinal decoupling seen for sennoside beta-glycosides, and is the result of secreted beta-glycosidases from the large intestinal microflora.

[7] = test system: Canus familiarus fecal sample; assay: Canine fecal digestion assay; type: in vitro ADME; settings: fecal samples 25 and 26; 37° C., 70 hours
Description: As the intestinal contents or feces of animals contain a tremendous diversity of microbes, as well as the carbohydrate-digesting enzymes secreted by those bacteria, it would be expected that when THC-glycosides are subjected to the intestines or feces of animals, they would decouple back to THC. The following samples were assayed to determine their respective glycosidic activities on select THC-glycosides: • 25 = Canus familiarus fecal sample, “Stevie”; Terrier of mixed breed; • 26 = Canus familiarus fecal sample, “Lucy”; Labrador Retriever; • 27 =Mus musculus small intestine contents, BALB/C; • 28 = Mus musculus large intestine contents, BALB/C; • 29 = Rattus rattus small intestine contents, Sprague Dawley; • 30 = Rattus rattus large intestine contents, Sprague Dawley; • 31 = Rattus rattus intestines - inferred from plasma sample, Sprague Dawley; • 32= Macaca fascicularis intestines - inferred from plasma sample, Cynomolgus monkey.
The assay for the Canus familiarus fecal samples was carried out according to the following protocol: A fresh fecal sample was obtained using an ethanol sterilized scoopula and transferred into a sterile 50 ml conical tube. […]
200 µl samples were pulled and extracted 3 times with 200 µl ethyl acetate (EtOAc) each. […] A 1:10 dilution of each was prepared in 50% MeOH and 10 µl injections were analyzed by HPLC. […]

[8] = test system: Vinotaste Pro (Novozymes); assay: In vitro digestion with Vinotaste Pro; settings: same digestion conditions as for Lallzyme Beta; HPLC
[9] = target: human cannabinoid receptor type 2 (CB2R) (Homo sapiens, UniProt P34972); assay: Radioligand binding assay, human CB2R; settings: 10 µM test compound; 2.40 nanomolar [3H] R(+)-WIN-55,212-2; human recombinant CHO-K1 cells; 90 minutes at 37 C
Sequence of UniProt P34972 (P34972 whole entry): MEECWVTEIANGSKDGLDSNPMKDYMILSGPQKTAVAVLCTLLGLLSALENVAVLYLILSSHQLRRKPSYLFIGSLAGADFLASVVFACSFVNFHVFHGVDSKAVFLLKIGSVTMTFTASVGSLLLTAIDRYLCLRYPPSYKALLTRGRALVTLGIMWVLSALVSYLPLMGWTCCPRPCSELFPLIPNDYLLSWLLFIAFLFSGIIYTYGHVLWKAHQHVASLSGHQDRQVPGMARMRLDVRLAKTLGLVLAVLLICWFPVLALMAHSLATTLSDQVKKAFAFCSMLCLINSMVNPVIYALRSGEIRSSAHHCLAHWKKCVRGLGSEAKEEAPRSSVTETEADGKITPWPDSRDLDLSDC

[10] = 1,000 mg/kg mixed glycosides by oral gavage; 6 hours; HPLC
[11] = rat plasma, analyte measured after oral gavage of VB311 at 1,000 mg/kg, average

CCCCCc1cc(O)c2c(c1)OC(C)(C)[C@@H]1CCC(CO)=C[C@@H]21 [11-OH-Tetrahydrocannabinol, reference compound]
AUC in plasma ([1]; listed as 11-OH-THC): 106.9 ng·h/mL
AUC in plasma ([1]; listed as Δ9-THC-11-OH): 107 ng·h/mL
Cmax in plasma [1]: 7.9 ng/mL
Tmax in plasma [1]: 24.0 h
relative amount in plasma ([2]; 6 hours post VB311 oral gavage): remained at trace levels
relative amount in plasma ([2]; 24 hours post VB311 oral gavage): increased at 24 hours
Cmax [2, 11]: 17.3 ng/mL
Tmax [2, 11]: 24.0 h
AUC ([2]; rat plasma, analyte measured after oral gavage of VB311 at 1,000 mg/kg, average, over 24 hours): 320.2 ng·h/mL

C=C(C)[C@@H]1CCC(C)=C[C@H]1c1c(O)cc(CCCCC)cc1O [VB101, Cannabidiol (CBD)]
presence of CBD-glycosides and CBD in plasma and brains ([3]; HPLC, data not shown): CBD was only present in the control animal that received CBD aglycone
compounds found in large intestinal contents ([3]; oral CBD in cremophor, ethanol, saline (control), LCMS): hydroxy metabolites of CBD were present
antimicrobial activity [4]: noticeable antimicrobial activity

C=C(C)[C@@H]1CCC(C)=C[C@H]1c1c(O)cc(CCCCC)cc1O[C@@H]1O[C@H](CO)[C@@H](O)[C@H](O)[C@H]1O [VB102, CBD-1-O-glucopyranoside]
digestion by Lallzyme Beta (extent / products) [5]: VB102 to CBD

C=C(C)[C@@H]1CCC(C)=C[C@H]1c1c(O[C@@H]2O[C@H](CO)[C@@H](O)[C@H](O)[C@H]2O)cc(CCCCC)cc1O[C@@H]1O[C@H](CO)[C@@H](O)[C@H](O)[C@H]1O [VB110, CBD-1,2-O-diglucopyranoside]
compounds found in small intestinal contents ([6]; 30, 60, 90 minutes): intact VB110, but no decoupled CBD
compounds found in large intestinal contents ([6]; 60 and 90 minute time points): contained both VB110 and CBD
digestion by Lallzyme Beta (extent / products) [5]: capable of hydrolyzing VB110 to VB102

C=C(C)[C@@H]1CCC(C)=C[C@H]1c1c(O)cc(CCCCC)cc1O[C@@H]1O[C@H](CO)[C@@H](O[C@@H]2O[C@H](CO)[C@@H](O)[C@H](O)[C@H]2O)[C@H](O[C@@H]2O[C@H](CO)[C@@H](O)[C@H](O)[C@H]2O)[C@H]1O [VB135]
resistance to glycoside hydrolase activity in canine feces [7]: unique resistance to glycoside hydrolase activity
digestion by Vinotaste Pro (extent / products) [8]: highly resistant to hydrolysis
digestion by Lallzyme Beta (extent / products) [5]: highly resistant to hydrolysis

CCCCCc1cc(O)c2c(c1)OC(C)(C)[C@@H]1CCC(C)=C[C@@H]21 [VB301, Δ9-Terahydrocannabinol, reference compound]
percent displacement of [3H] WIN-55,212-2 at human CB2R [9]: 97%

CCCCCc1cc(O[C@@H]2O[C@H](CO)[C@@H](O)[C@H](O)[C@H]2O)c2c(c1)OC(C)(C)[C@@H]1CCC(C)=C[C@@H]21 [VB302, Δ9THC-1-O-glucopyranoside]
percent displacement of [3H] WIN-55,212-2 at human CB2R [9]: 17%

CCCCCc1cc(O[C@@H]2O[C@H](CO)[C@@H](O[C@@H]3O[C@H](CO)[C@@H](O)[C@H](O)[C@H]3O)[C@H](O)[C@H]2O)c2c(c1)OC(C)(C)[C@@H]1CCC(C)=C[C@@H]21 [VB309]
change of share of total THC-glycosides in large intestine extracts versus small intestine extracts [10]: sharp decrease
change of share of total THC-glycosides in small intestine extracts versus administered mixture [10]: increases
digestion by Lallzyme Beta (extent / products) [5]: entirely digested into VB302

CCCCCc1cc(O[C@@H]2O[C@H](CO[C@@H]3O[C@H](CO)[C@@H](O)[C@H](O)[C@H]3O)[C@@H](O)[C@H](O)[C@H]2O)c2c(c1)OC(C)(C)[C@@H]1CCC(C)=C[C@@H]21 [VB310]
change of share of total THC-glycosides in large intestine extracts versus small intestine extracts [10]: further increases
change of share of total THC-glycosides in small intestine extracts versus administered mixture [10]: increases
digestion by Lallzyme Beta (extent / products) [5]: entirely digested into VB302

CCCCCc1cc(O[C@@H]2O[C@H](CO[C@@H]3O[C@H](CO)[C@@H](O)[C@H](O)[C@H]3O)[C@@H](O[C@@H]3O[C@H](CO)[C@@H](O)[C@H](O)[C@H]3O)[C@H](O)[C@H]2O)c2c(c1)OC(C)(C)[C@@H]1CCC(C)=C[C@@H]21 [VB311]
percent displacement of [3H] WIN-55,212-2 at human CB2R [9]: 21%

CCCCCc1cc(O[C@@H]2O[C@H](CO)[C@@H](O[C@@H]3O[C@H](CO)[C@@H](O)[C@H](O[C@@H]4O[C@H](CO)[C@@H](O)[C@H](O)[C@H]4O)[C@H]3O)[C@H](O)[C@H]2O)c2c(c1)OC(C)(C)[C@@H]1CCC(C)=C[C@@H]21 [VB312]
change of share of total THC-glycosides in large intestine extracts versus small intestine extracts [10]: further decreases
change of share of total THC-glycosides in small intestine extracts versus administered mixture [10]: modest decrease
digestion by Lallzyme Beta (extent / products) [5]: entirely digested into VB302

CCCCCc1cc(O[C@@H]2O[C@H](CO[C@@H]3O[C@H](CO)[C@@H](O)[C@H](O)[C@H]3O)[C@@H](O[C@@H]3O[C@H](CO)[C@@H](O)[C@H](O[C@@H]4O[C@H](CO)[C@@H](O)[C@H](O)[C@H]4O)[C@H]3O)[C@H](O)[C@H]2O)c2c(c1)OC(C)(C)[C@@H]1CCC(C)=C[C@@H]21 [VB313]
change of share of total THC-glycosides in small intestine extracts versus administered mixture [10]: sharp decrease

CBD-1-O-(3-1), 2-O-(3-1)-tetraglucopyranoside [VB119]
digestion by Vinotaste Pro (extent / products) [8]: digested back to VB110, with a small amount of VB102
digestion by Lallzyme Beta (extent / products) [5]: digested back primarily to VB102, with some VB110 and slight CBD

CBD-1-O-(3-1), 2-O-triglucopyranoside [VB112]
digestion by Vinotaste Pro (extent / products) [8]: digested back to VB110, with a small amount of VB102
digestion by Lallzyme Beta (extent / products) [5]: digested back primarily to VB102, with some VB110 and slight CBD
